# Data published in a collection of fitness landscapes (doi:10.1126/science.1257360).
# Some of the results follow.
# B1: PhoQ; a variant is named by its letters at X, in order, P23837 (parent)
# chain: MKKLLRLFFPLSLRVRFLLATAAVVLVLSLAYGMVALIGYSVSFDKTTFRLLRGESNLFYTLAKWENNKLHVELPENIDKQSPTMTLIYDENGQLLWAQRDVPWLMKMIQPDWLKSNGFHEIEADVNDTSLLLSGDHSIQQQLQEVREDDDDAEMTHSVAVNVYPATSRMPKLTIVVVDTIPVELKSSYMVWSWFIYVLSANLLLVIPLLWVAAWWSLRPIEALAKEVRELEEHNRELLNPATTRELTSLVRNLNRLLKSERERYDKYRTTLTDLTHSLKTPLXXLQXXLRSLRSEKMSVSDAEPVMLEQISRISQQIGYYLHRASMRGGTLLSRELHPVAPLLDNLTSALNKVYQRKGVNISLDISPEISFVGEQNDFVEVMGNVLDNACKYCLEFVEISARQTDEHLYIVVEDDGPGIPLSKREVIFDRGQRVDTLRPGQGVGLAVAREITEQYEGKIVAGESMLGGARMEVIFGRQHSAPKDE
# Variants of: B1
# Assay: enrichment ratio after two sorts for PhoP signalling (ratio (wild type AVST 3.29)); higher = more functional
# Conditions: with PhoP (E. coli)
row,Variant,enrichment ratio
1,NHLH,≤ 0.25
2,HTTD,≤ 0.25
3,EVAM,≤ 0.25
4,DADN,≤ 0.25
5,ASKG,≤ 0.25
6,MVCF,5.97
7,RCQY,≤ 0.25
8,YSEI,≤ 0.25
9,INFA,≤ 0.25
10,RCWQ,≤ 0.25
11,NQRE,≤ 0.25
12,HSHE,≤ 0.25
13,DQGH,≤ 0.25
14,IQDD,≤ 0.25
15,QCAC,≤ 0.25
16,NVSM,≤ 0.25
17,RTRI,≤ 0.25
18,VHKV,≤ 0.25
19,NVGL,≤ 0.25
20,YRSS,≤ 0.25
21,KMIY,≤ 0.25
22,IATH,≤ 0.25
23,KLIN,≤ 0.25
24,YKQT,≤ 0.25
25,RLNN,≤ 0.25
26,VANK,≤ 0.25

row,Variant,enrichment ratio
1,TFSQ,7.57
2,YSFD,≤ 0.25
3,VQMN,≤ 0.25
4,EYAL,≤ 0.25
5,LNME,≤ 0.25
6,PFAI,≤ 0.25
7,AVTA,3.71
8,WGYE,≤ 0.25
9,TLTK,≤ 0.25
10,LGWD,≤ 0.25
11,IKTT,≤ 0.25
12,GGNT,≤ 0.25
13,KACQ,≤ 0.25
14,EMIK,≤ 0.25
15,VVWC,≤ 0.25
16,DIRR,≤ 0.25
17,GVPG,≤ 0.25
18,TWER,≤ 0.25
19,YRMD,≤ 0.25
20,DFNN,≤ 0.25
21,NMYP,≤ 0.25
22,TLHK,≤ 0.25
23,VITN,≤ 0.25
24,DTCN,≤ 0.25
25,SKGP,≤ 0.25
26,TIIA,≤ 0.25

row,Variant,enrichment ratio
1,MPLW,≤ 0.25
2,GHVR,≤ 0.25
3,MTRR,≤ 0.25
4,WSDL,≤ 0.25
5,PYWR,≤ 0.25
6,AVPP,≤ 0.25
7,MEDV,≤ 0.25
8,TVQE,10.3
9,MFFY,≤ 0.25
10,KLVC,≤ 0.25
11,YLKF,≤ 0.25
12,HYPE,≤ 0.25
13,DMAD,≤ 0.25
14,SIEF,≤ 0.25
15,KDKI,≤ 0.25
16,HPLT,≤ 0.25
17,SSMK,≤ 0.25
18,EFLL,≤ 0.25
19,YGPP,≤ 0.25
20,FQIK,≤ 0.25
21,YNPR,≤ 0.25
22,SEAF,8.7
23,MHAT,≤ 0.25
24,KSYE,≤ 0.25
25,DPNT,≤ 0.25
26,SRKR,≤ 0.25

row,Variant,enrichment ratio
1,PNWV,≤ 0.25
2,TEGF,1.69
3,NVKN,≤ 0.25
4,WKNK,≤ 0.25
5,TCIN,≤ 0.25
6,MYKR,≤ 0.25
7,TSPI,≤ 0.25
8,EAER,≤ 0.25
9,VTLI,8.55
10,WLFQ,≤ 0.25
11,LSCQ,≤ 0.25
12,MVAN,15.8
13,KYVE,≤ 0.25
14,WLKV,≤ 0.25
15,WKER,≤ 0.25
16,PESC,≤ 0.25
17,QPMP,≤ 0.25
18,TDTS,3.18
19,SSIP,≤ 0.25
20,KAFQ,≤ 0.25
21,ADRF,≤ 0.25
22,QYKI,≤ 0.25
23,KMAH,≤ 0.25
24,DAGI,≤ 0.25
25,PMTV,≤ 0.25
26,TLGT,8.82

row,Variant,enrichment ratio
1,WYMK,≤ 0.25
2,PFFM,≤ 0.25
3,IAGT,≤ 0.25
4,RPNV,≤ 0.25
5,NYEI,≤ 0.25
6,VKVY,≤ 0.25
7,IDAN,≤ 0.25
8,WLDW,≤ 0.25
9,MMYY,≤ 0.25
10,PHEH,≤ 0.25
11,PIIM,≤ 0.25
12,PMKM,≤ 0.25
13,GQHQ,≤ 0.25
14,KEYV,≤ 0.25
15,RYFS,≤ 0.25
16,NIYL,≤ 0.25
17,QVDH,7.05
18,LTWV,≤ 0.25
19,NYKK,≤ 0.25
20,SLDG,≤ 0.25
21,RPPV,≤ 0.25
22,AARY,≤ 0.25
23,IPNT,≤ 0.25
24,AKLG,5.74
25,HHPI,≤ 0.25
26,HGYS,≤ 0.25

row,Variant,enrichment ratio
1,HNRQ,≤ 0.25
2,FAGQ,≤ 0.25
3,GKKF,≤ 0.25
4,QLHF,≤ 0.25
5,IDHD,≤ 0.25
6,WVFH,≤ 0.25
7,EWFP,≤ 0.25
8,IGGN,≤ 0.25
9,TEFP,≤ 0.25
10,SLNH,0.412
11,YPMY,≤ 0.25
12,ASVA,4.82
13,IPVC,≤ 0.25
14,ADNW,≤ 0.25
15,SIRE,≤ 0.25
16,SRER,≤ 0.25
17,QEQY,≤ 0.25
18,RSEW,≤ 0.25
19,NFIC,≤ 0.25
20,GYPD,≤ 0.25
21,IRRF,≤ 0.25
22,MRKD,≤ 0.25
23,VRVN,≤ 0.25
